# Assay results: the supplement of paper PMC3334620
# Whole data set: some 33,000 sequences, median “E-score (-0.5 to 0.5)” near -0.053, cut for the highest 2% near 0.37. Some of the results follow.
# Biological target: Hap1 (UniProt P0CE41)
# Test: PBM E-score (8-mer binding enrichment) (E-score (-0.5 to 0.5)); higher = stronger / more preferred TF binding; most listed sequences are background and not binding sites
# Settings: protein concentration: 200 nM; construct: GST-DNA-binding domain
# Method in brief: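 Universal all-10-mer Agilent arrays, double-stranded by primer extension on fresh or once-stripped slides, were probed with about 100-200 nM GST-tagged yeast transcription factors made by PURExpress. Fluorescent anti-GST detected bound protein, and masliner normalised the scans. E-scores from the Universal PBM Analysis Suite were given to each ungapped eight-base word pooled with its reverse complement.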
# Chain of UniProt P0CE41 (P0CE41 whole entry): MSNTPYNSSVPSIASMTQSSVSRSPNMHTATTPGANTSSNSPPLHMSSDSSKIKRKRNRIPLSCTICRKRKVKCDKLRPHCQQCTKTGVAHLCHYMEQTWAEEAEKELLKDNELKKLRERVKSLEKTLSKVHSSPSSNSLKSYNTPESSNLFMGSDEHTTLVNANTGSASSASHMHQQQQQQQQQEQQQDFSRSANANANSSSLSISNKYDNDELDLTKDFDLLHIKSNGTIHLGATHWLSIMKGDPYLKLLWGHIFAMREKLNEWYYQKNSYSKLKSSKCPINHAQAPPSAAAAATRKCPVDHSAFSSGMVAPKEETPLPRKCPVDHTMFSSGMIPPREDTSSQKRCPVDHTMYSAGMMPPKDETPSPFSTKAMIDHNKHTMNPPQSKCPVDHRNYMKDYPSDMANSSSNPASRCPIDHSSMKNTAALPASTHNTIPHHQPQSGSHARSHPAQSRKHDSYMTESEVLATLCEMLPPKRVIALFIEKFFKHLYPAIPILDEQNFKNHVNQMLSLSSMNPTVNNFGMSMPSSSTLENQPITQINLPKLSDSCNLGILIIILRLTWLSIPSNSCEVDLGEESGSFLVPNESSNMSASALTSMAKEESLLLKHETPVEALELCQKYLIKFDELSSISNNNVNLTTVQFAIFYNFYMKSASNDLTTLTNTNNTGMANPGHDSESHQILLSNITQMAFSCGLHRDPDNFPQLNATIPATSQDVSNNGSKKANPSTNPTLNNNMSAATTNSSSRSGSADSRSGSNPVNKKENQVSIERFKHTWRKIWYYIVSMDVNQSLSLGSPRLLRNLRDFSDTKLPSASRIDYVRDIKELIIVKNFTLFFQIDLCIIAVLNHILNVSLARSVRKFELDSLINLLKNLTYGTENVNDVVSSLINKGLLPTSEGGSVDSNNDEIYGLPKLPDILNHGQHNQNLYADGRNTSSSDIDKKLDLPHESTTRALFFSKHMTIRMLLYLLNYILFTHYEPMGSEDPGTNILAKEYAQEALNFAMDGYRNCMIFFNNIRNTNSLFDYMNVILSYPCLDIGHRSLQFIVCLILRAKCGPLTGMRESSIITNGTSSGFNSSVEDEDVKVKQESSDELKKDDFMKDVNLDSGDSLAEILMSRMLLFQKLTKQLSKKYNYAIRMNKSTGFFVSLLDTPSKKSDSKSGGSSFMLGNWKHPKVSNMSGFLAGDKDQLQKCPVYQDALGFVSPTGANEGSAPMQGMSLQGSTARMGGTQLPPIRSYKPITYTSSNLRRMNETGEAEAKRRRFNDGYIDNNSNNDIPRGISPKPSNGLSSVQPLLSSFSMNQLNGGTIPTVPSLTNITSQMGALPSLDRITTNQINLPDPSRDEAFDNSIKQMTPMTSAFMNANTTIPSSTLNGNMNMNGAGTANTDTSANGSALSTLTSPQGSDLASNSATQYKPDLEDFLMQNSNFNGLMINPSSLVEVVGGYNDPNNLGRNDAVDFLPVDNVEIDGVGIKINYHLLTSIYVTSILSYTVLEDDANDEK
row,Sequence,PBM E-score
1,CCTGAGGA,-0.164
2,CAAGTGGA,-0.239
3,AAACTTTA,0.0529
4,AGCCGGAT,0.418
5,CACAACAA,-0.232
6,AATCTGGT,0.115
7,CGTACTAC,0.137
8,GACCAAAC,0.0321
9,TAGTCCGA,0.42
10,GCTCAGCA,-0.221
11,AAGTATTA,-0.145
12,ACACCCGC,0.158
13,ACCCCTAC,-0.263
14,AATAGGTG,-0.225
15,CTTGGACA,-0.0486
16,CTTACACC,-0.089
17,AGCCCTAT,-0.152
18,AAAAACAT,-0.171
19,AAATTCAT,-0.207
20,ATCGTCCG,0.379
21,ACTTCATG,-0.00326
22,CACCCGTA,0.0859
23,AGAGGAGC,-0.21

row,Sequence,PBM E-score
1,AACAGTTA,0.155
2,CCGCGAAC,0.191
3,ACGCGCCG,0.188
4,AATCCATG,-0.036
5,AGGGCACT,-0.157
6,ATCTCTTG,-0.188
7,CTCCCATA,-0.297
8,GCTACGCC,-0.0393
9,GAGGGAAA,-0.239
10,ATTGCAGA,-0.155
11,CCGTAACC,0.298
12,CACCCTGG,-0.207
13,ACAGCCAC,-0.0119
14,CCTCATGC,-0.155
15,ACTCTGAG,-0.27
16,ACCATGGT,-0.233
17,CGGTCGTC,0.165
18,CCCCTTTA,-0.337
19,CCCCCACC,-0.153
20,ATACTCTC,-0.0193
21,CACGGGAA,0.09
22,GAGAACCA,-0.0916
23,CCCAGACG,-0.143

row,Sequence,PBM E-score
1,AGGCTCAG,-0.366
2,CCTAGGTA,-0.239
3,GGCGGAAA,0.29
4,ATACCCCC,0.283
5,CGGGAAAC,0.265
6,TGCTACCA,-0.242
7,CTACACTC,-0.194
8,ACCTCTTG,-0.021
9,TAGCACGA,-0.0859
10,AACCCGAA,0.326
11,AATCGAAG,0.0385
12,CAATCCTG,-0.0794
13,CACTCCGG,0.302
14,CGCCGGAC,0.409
15,ATGGCTGA,-0.229
16,TAGCGAGA,-0.102
17,CCGATGCC,0.242
18,ATTTGCGG,0.311
19,AGCCTAGC,-0.14
20,AACCCTCT,-0.19
21,AGACCCGA,0.347
22,CCGCGTCA,-0.0323
23,GACTATCC,0.0769

row,Sequence,PBM E-score
1,ATTAGTAG,-0.134
2,AACAACTT,-0.0394
3,GCCACGGA,0.3
4,CTCCCATC,-0.0417
5,CAGAGACA,-0.22
6,ACACCTCT,-0.15
7,ACAACTTC,0.00956
8,CGGCCTCA,0.204
9,GAATTAGA,-0.0219
10,ACACTTTG,-0.0807
11,GCTGCAAA,-0.0447
12,TTATGAAA,0.0619
13,AGCTCGTC,-0.0097
14,ATTAGACC,0.0558
15,CCGCAAAA,0.295
16,CAACGACC,0.0497
17,GTGGGAAA,-0.0848
18,AGGACCCC,-0.0574
19,CGGGCCCA,0.26
20,CCGATTCA,0.0816
21,CCGGGTAC,0.179
22,CTCACCCA,-0.0601
23,CGCGACTC,-0.00413

row,Sequence,PBM E-score
1,TATAGAGA,-0.388
2,CGTGACAC,0.0111
3,AGCAGATG,-0.378
4,CCATTTCA,-0.277
5,AATCGAAA,-0.0702
6,GCAACGAC,-0.00642
7,CTCATGTA,-0.16
8,AAAGCGGG,-0.0186
9,CCGACTCA,0.163
10,CAAGAGTA,-0.0578
11,GAGACCAC,-0.102
12,CGATCGGA,0.354
13,AGTTTGTA,-0.0891
14,ATATCGAC,0.132
15,CGTATTCA,-0.0827
16,CGATTACG,0.0252
17,ATACCAGC,-0.0328
18,AGGTTGAT,-0.254
19,ATTTGAAG,0.136
20,GACCTACC,0.127
21,GAGGTCCC,0.0465
22,TGCGCACA,-0.0738
23,AATTATCG,0.26

row,Sequence,PBM E-score
1,TACTAGTA,-0.0786
2,ATATTACC,0.0991
3,AATCGGGG,0.301
4,GAGTTCGA,-0.0742
5,AATATAGC,-0.167
6,AGAAGAAA,-0.0706
7,GCTAGCAA,-0.164
8,CGCGGGGC,0.159
9,CAGCCGCC,0.215
10,ACTAGAGC,-0.146
11,ACATAGGA,-0.155
12,GCTCTCGA,-0.271
13,AGTACGAG,0.0666
14,AACGGCGT,0.123
15,CGACTTAG,-0.179
16,GCTAACTA,0.0575
17,GCCCCTTA,0.0201
18,GCCCTAAA,-0.0473
19,ACTCTTCG,0.0527
20,ACCAAACG,-0.162
21,CTACTGTC,-0.136
22,ACTCCAGT,-0.245
23,GAGTTTAC,0.223

row,Sequence,PBM E-score
1,ACTAACAT,-0.0737
2,AACCTAAC,0.12
3,AAGGTGGG,-0.232
4,TGCCCAAA,-0.178
5,CCAGATAA,0.0917
6,GGCATTTA,0.00196
7,ATGAGCTG,-0.138
8,AGCACTAC,-0.202
9,ATGTGTAC,-0.272
10,ACCCTGCG,-0.121
11,AAGTGCCT,-0.246
12,CAACCGGC,0.334
13,ATTAGCTA,-0.14
14,ATTCGCCC,0.252
15,ATAGCGCC,0.171
16,CAAGCAGA,-0.159
17,GCGGAGGA,0.17
18,AAACGGAA,0.274
19,ACGCGTGG,0.0356
20,CCAGACGC,-0.247
21,CAACTAAC,0.163
22,CCTATGGA,-0.035
